# Some of the results follow.
# B1: PX14379A-bvu-539-28-539 (Bacteroides vulgatus) (protein)
# chain: EPYSEIIEEDYVPTEADEIALLATTYSQLRFVMDWYGLFDLQEESGDVIVTPTRPNGWDDGGTYKQMHKHTWDNQQGQPQSIWDYCYKGIANANKILKRADEGFFTEESKPKVVAEVKGVRALWYSILCDTHGNIPIQTSFSEEVPVQSTRKQVFDFIINELKEVMPNLPTEVNKSTYGRLTQWGAKCLMARMYLNAGVYTGTPMWNECLEQCNDIINSGLFSLETNYTDIFKTENSGCVETIFAIPYDEVYNEGDNNGPVFGAHMKFLSSNSRKVFNMQTTPWGGSAANPQFINSYDPDDMRLKYTWLQGDQYSPDGVLITTFPNKLPSIYKTDTDDGYRVGKYEIKVGAKSLLSNDFPYFRYTEVLLMKAECLLRLGQNETEAAHIVSQIRERAFRESAHPEKATVDAAWLKGDTHINYGTLDEKGQIDDAGNTEVVELGGLYDEWGWEFAAEARRRTDMIRFGTYQKKSWFNHTPTANDLNGNSILFPIHLDHLNTNPNLQQNPGYAGK
# Assays:
# Assay in all cases: glycan array binding signal (z-score within array); higher = stronger binding
# Settings in all cases: glycan notation: IUPAC condensed, linker removed
# [1] = molecular target: Gal(b1-3)GalNAc(b1-3)Gal(a1-4)Gal(b1-4)Glc
# Method in brief: (§1)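 From the Consortium for Functional Glycomics database, 3228 arrays were curated, keeping only those whose protein sequence was available. Binding is given as a within-array Z-score averaged across arrays sharing a protein sequence and across linkers. Negative Z-scores can be read as non-binding.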
# [2] = molecular target: Gal(b1-3)GalNAc(b1-4)Gal(b1-4)Glc
# Method in brief: as §1
# [3] = molecular target: Gal(b1-3)GalNAc(b1-4)[Neu5Ac(a2-3)]Gal(b1-4)Glc
# Method in brief: as §1
# [4] = molecular target: Gal(b1-3)GlcNAc
# Method in brief: as §1
# [5] = molecular target: Gal(b1-3)GlcNAc(a1-3)Gal(b1-4)GlcNAc
# Method in brief: as §1
# [6] = molecular target: Gal(b1-3)GlcNAc(a1-6)Gal(b1-4)GlcNAc
# Method in brief: as §1
# [7] = molecular target: Gal(b1-3)GlcNAc(b1-2)Man
# Method in brief: as §1
# [8] = molecular target: Gal(b1-3)GlcNAc(b1-2)Man(a1-3)[Gal(b1-3)GlcNAc(b1-2)Man(a1-6)]Man(b1-4)GlcNAc(b1-4)GlcNAc
# Method in brief: as §1
# [9] = molecular target: Gal(b1-3)GlcNAc(b1-2)Man(a1-3)[Gal(b1-3)GlcNAc(b1-2)Man(a1-6)]Man(b1-4)GlcNAc(b1-4)[Fuc(a1-6)]GlcNAc
# Method in brief: as §1
# [10] = molecular target: Gal(b1-3)GlcNAc(b1-2)Man(a1-3)[GlcNAc(b1-4)][Gal(b1-3)GlcNAc(b1-2)Man(a1-6)]Man(b1-4)GlcNAc(b1-4)GlcNAc
# Method in brief: as §1
# [11] = molecular target: Gal(b1-3)GlcNAc(b1-2)[Gal(b1-3)GlcNAc(b1-6)]Man(a1-6)[Gal(b1-3)GlcNAc(b1-2)Man(a1-3)]Man(b1-4)GlcNAc(b1-4)GlcNAc
# Method in brief: as §1
# [12] = molecular target: Gal(b1-3)GlcNAc(b1-3)Gal(b1-3)GlcNAc
# Method in brief: as §1
# [13] = molecular target: Gal(b1-3)GlcNAc(b1-3)Gal(b1-4)Glc
# Method in brief: as §1
# [14] = molecular target: Gal(b1-3)GlcNAc(b1-3)Gal(b1-4)GlcNAc
# Method in brief: as §1
# [15] = molecular target: Gal(b1-3)GlcNAc(b1-3)Gal(b1-4)GlcNAc(b1-2)Man(a1-3)[Gal(b1-3)GlcNAc(b1-3)Gal(b1-4)GlcNAc(b1-2)Man(a1-6)]Man(b1-4)GlcNAc(b1-4)GlcNAc
# Method in brief: as §1
# [16] = molecular target: Gal(b1-3)GlcNAc(b1-3)Gal(b1-4)GlcNAc(b1-2)[Gal(b1-3)GlcNAc(b1-3)Gal(b1-4)GlcNAc(b1-6)]Man(a1-6)[Gal(b1-3)GlcNAc(b1-3)Gal(b1-4)GlcNAc(b1-2)Man(a1-3)]Man(b1-4)GlcNAc(b1-4)[Fuc(a1-6)]GlcNAc
# Method in brief: as §1
# [17] = molecular target: Gal(b1-3)GlcNAc(b1-3)Gal(b1-4)GlcNAc(b1-3)Gal(b1-4)GlcNAc(b1-2)[Gal(b1-3)GlcNAc(b1-3)Gal(b1-4)GlcNAc(b1-3)Gal(b1-4)GlcNAc(b1-6)]Man(a1-6)[Gal(b1-3)GlcNAc(b1-3)Gal(b1-4)GlcNAc(b1-3)Gal(b1-4)GlcNAc(b1-2)Man(a1-3)]Man(b1-4)GlcNAc(b1-4)[Fuc(a1-6)]GlcNAc
# Method in brief: as §1
# [18] = molecular target: Gal(b1-3)GlcNAc(b1-3)Gal(b1-4)GlcNAc(b1-6)[Gal(b1-3)GlcNAc(b1-3)]Gal(b1-4)Glc
# Method in brief: as §1
# [19] = molecular target: Gal(b1-3)GlcNAc(b1-3)Gal(b1-4)[Fuc(a1-3)]GlcNAc
# Method in brief: as §1
# [20] = molecular target: Gal(b1-3)GlcNAc(b1-3)Gal(b1-4)[Fuc(a1-3)]GlcNAc(b1-6)[Gal(b1-3)GlcNAc(b1-3)]Gal(b1-4)Glc
# Method in brief: as §1
# [21] = molecular target: Gal(b1-3)GlcNAc(b1-3)GalNAc
# Method in brief: as §1
# [22] = molecular target: Gal(b1-3)GlcNAc(b1-6)Gal(b1-4)GlcNAc
# Method in brief: as §1
# [23] = molecular target: Gal(b1-3)GlcNAc(b1-6)GalNAc
# Method in brief: as §1
# [24] = molecular target: Gal(b1-3)GlcNAc(b1-6)[Gal(b1-3)]GalNAc
# Method in brief: as §1
# [25] = molecular target: Gal(b1-3)GlcNAc6S
# Method in brief: as §1
# [26] = molecular target: Gal(b1-3)[Fuc(a1-4)]GlcNAc
# Method in brief: as §1
# [27] = molecular target: Gal(b1-3)[Fuc(a1-4)]GlcNAc(b1-2)Man
# Method in brief: as §1
# [28] = molecular target: Gal(b1-3)[Fuc(a1-4)]GlcNAc(b1-2)Man(a1-3)[Gal(b1-3)[Fuc(a1-4)]GlcNAc(b1-2)Man(a1-6)]Man(b1-4)GlcNAc(b1-4)[Fuc(a1-6)]GlcNAc
# Method in brief: as §1
# [29] = molecular target: Gal(b1-3)[Fuc(a1-4)]GlcNAc(b1-3)Gal(b1-3)[Fuc(a1-4)]GlcNAc
# Method in brief: as §1
# [30] = molecular target: Gal(b1-3)[Fuc(a1-4)]GlcNAc(b1-3)Gal(b1-4)[Fuc(a1-3)]GlcNAc
# Method in brief: as §1
# [31] = molecular target: Gal(b1-3)[Fuc(a1-4)]GlcNAc(b1-6)GalNAc
# Method in brief: as §1
# [32] = molecular target: Gal(b1-3)[GlcNAc(b1-6)]GalNAc
# Method in brief: as §1
# [33] = molecular target: Gal(b1-3)[Neu5Ac(a2-6)]GalNAc
# Method in brief: as §1
# [34] = molecular target: Gal(b1-3)[Neu5Ac(a2-6)]GlcNAc(b1-4)Gal(b1-4)Glc
# Method in brief: as §1
# [35] = molecular target: Gal(b1-3)[Neu5Ac(b2-6)]GalNAc
# Method in brief: as §1
# [36] = molecular target: Gal(b1-4)Gal
# Method in brief: as §1
# [37] = molecular target: Gal(b1-4)GalNAc(a1-3)[Fuc(a1-2)]Gal(b1-4)GlcNAc
# Method in brief: as §1
# [38] = molecular target: Gal(b1-4)GalNAc(b1-3)[Fuc(a1-2)]Gal(b1-4)GlcNAc
# Method in brief: as §1
binder,measurement,setting,value
B1,glycan array binding signal (z-score),[1],-0.318
same,glycan array binding signal (z-score),[2],0.199
same,glycan array binding signal (z-score),[3],-0.503
same,glycan array binding signal (z-score),[4],-0.23
same,glycan array binding signal (z-score),[5],-0.463
same,glycan array binding signal (z-score),[6],0.75
same,glycan array binding signal (z-score),[7],0.056
same,glycan array binding signal (z-score),[8],0.258
same,glycan array binding signal (z-score),[9],0.386
same,glycan array binding signal (z-score),[10],0.411
same,glycan array binding signal (z-score),[11],5.87
same,glycan array binding signal (z-score),[12],0.03
same,glycan array binding signal (z-score),[13],-0.39
same,glycan array binding signal (z-score),[14],-0.069
same,glycan array binding signal (z-score),[15],0.904
same,glycan array binding signal (z-score),[16],0.394
same,glycan array binding signal (z-score),[17],1.51
same,glycan array binding signal (z-score),[18],-0.363
same,glycan array binding signal (z-score),[19],-0.515
same,glycan array binding signal (z-score),[20],-0.153
same,glycan array binding signal (z-score),[21],-0.165
same,glycan array binding signal (z-score),[22],-0.27
same,glycan array binding signal (z-score),[23],-0.344
same,glycan array binding signal (z-score),[24],1.75
same,glycan array binding signal (z-score),[25],0.002
same,glycan array binding signal (z-score),[26],-0.374
same,glycan array binding signal (z-score),[27],-0.391
same,glycan array binding signal (z-score),[28],0.335
same,glycan array binding signal (z-score),[29],-0.467
same,glycan array binding signal (z-score),[30],0.155
same,glycan array binding signal (z-score),[31],-0.234
same,glycan array binding signal (z-score),[32],-0.091
same,glycan array binding signal (z-score),[33],-0.369
same,glycan array binding signal (z-score),[34],-0.375
same,glycan array binding signal (z-score),[35],-0.413
same,glycan array binding signal (z-score),[36],-0.314
same,glycan array binding signal (z-score),[37],-0.278
same,glycan array binding signal (z-score),[38],0.182
